# The campaign covered roughly 110,000 compounds. About 230 (0.21%) showed an effect of 50% or more. This is one part of the list.
# Molecular target: DPAP1 (Plasmodium falciparum, UniProt Q8IIJ9)
# Test: primary screen, percent inhibition; read by cleavage of a fluorogenic dipeptide substrate; higher = more effect of the substance
# Set-up: species or system P. falciparum D10 trophozoite lysates; single well
# 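Further: 30 min substrate incubation versus DMSO and 10 µM JCP410 controls.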
# Sequence of DPAP1 (Q8IIJ9 whole entry, looked up): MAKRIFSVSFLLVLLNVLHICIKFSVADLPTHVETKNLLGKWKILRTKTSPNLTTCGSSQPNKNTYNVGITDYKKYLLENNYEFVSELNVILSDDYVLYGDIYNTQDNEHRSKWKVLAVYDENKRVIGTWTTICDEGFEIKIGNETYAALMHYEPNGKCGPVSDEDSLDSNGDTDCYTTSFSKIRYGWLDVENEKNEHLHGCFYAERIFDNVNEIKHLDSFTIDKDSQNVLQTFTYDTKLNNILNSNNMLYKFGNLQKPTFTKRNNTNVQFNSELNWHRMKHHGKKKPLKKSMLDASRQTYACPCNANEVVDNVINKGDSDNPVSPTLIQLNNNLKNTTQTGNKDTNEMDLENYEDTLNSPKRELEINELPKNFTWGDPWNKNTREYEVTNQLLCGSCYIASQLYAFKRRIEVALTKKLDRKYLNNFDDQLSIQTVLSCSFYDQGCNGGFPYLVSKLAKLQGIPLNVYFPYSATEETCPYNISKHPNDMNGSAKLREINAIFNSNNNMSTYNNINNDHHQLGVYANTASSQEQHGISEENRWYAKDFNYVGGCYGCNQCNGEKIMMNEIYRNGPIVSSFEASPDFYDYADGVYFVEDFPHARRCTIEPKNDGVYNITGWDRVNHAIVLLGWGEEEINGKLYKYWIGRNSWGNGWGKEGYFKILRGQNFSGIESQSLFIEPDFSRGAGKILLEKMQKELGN
row,Structure (SMILES),% Inhibition @ 10 uM
1,COCc1cc(C2SCC(=O)Nc3c2c(C)nn3C2CCOC(C)(C)C2)ccc1OC (centres unmarked),2.89%
2,CC1CC(Nc2ccccc2)c2ccccc2N1C(=O)c1ccccc1Br (centres unmarked),-2.32%
3,CCOc1ccc(-c2csc3nc(-c4ccccc4OC)oc(=O)c23)cc1,0.275%
4,COc1ccc(S(=O)(=O)NCc2ccc(C)cc2)cc1,-1.5%
5,O=C(c1ccc(Cl)cc1Cl)N1CCN(c2ccc(F)cc2)CC1,0.135%
6,CCC1C(=O)N=C(SCC(=O)NCc2ccccc2)NC1=O (centres unmarked),-4.11%
7,COc1ccc(CNC(=S)c2ccccc2)cc1OC,3.8%
8,O=[N+]([O-])c1ccc(N2CCN(c3ccccc3)CC2)c2ncccc12,4.47%
9,O=C1c2nccnc2C(=O)N1c1cccc2ccccc12,1.66%
10,Cc1nc2ccc(C(=O)NCc3ccccc3)cc2s1,2.4%
11,O=C1NC(=O)/C(=C\c2cc(Br)ccc2OCc2ccc(C(=O)O)cc2)N1,6.89%
12,COc1cc(OC)c(CN2CCCC(O)C2)cc1Br (centres unmarked),-3.56%
13,CCn1c(/C=C/c2ccc(OC)cc2)nc2ccccc21,-7.09%
14,Cc1ccc(-c2cn3nc(N4CCC(C(=O)NCCN(C)C)CC4)sc3n2)cc1,-3.6%
15,CC(C)CCNC(=O)CN1CCN(Cc2ccc(F)cc2Cl)C1=O,-4.53%
16,COc1ccc(CNC(=O)CCN2C(=O)C3C4C=CC(CC4)C3C2=O)cc1 (centres unmarked),8.84%
17,Cc1cccc(NC(=O)CN2C(=O)N/C(=C/c3cc(C)n(-c4ccncc4)c3C)C2=O)c1,14.8%
18,CCOC(=O)c1sc2nc3c(cc2c1N)COC(C)(CC)C3 (centres unmarked),9.55%
19,CCOc1ccc(C2c3c(oc4ccccc4c3=O)C(=O)N2c2nc(C)c(C)s2)cc1 (centres unmarked),-1.86%
20,Cc1ccc(N2C(=O)c3cccc([N+](=O)[O-])c3C2=O)cc1,-6.52%
21,O=C(Nc1nccs1)c1ccc(COc2ccccc2Cl)o1,-5.98%
22,c1ccc(-c2noc(CSc3nnc(COc4ccc5c(c4)OCO5)n3-c3ccccc3)n2)cc1,-3.75%
23,O=C(NCCCN1CCOCC1)c1cccc(F)c1,-7.45%
24,Oc1ccc(CN2CCN(C/C=C/c3ccccc3)CC2)cc1,-1.07%
25,O=C(COc1ccc(S(=O)(=O)NC2CCCCC2)cc1)NCc1ccc(Cl)cc1,0.64%
26,Cc1nc2ccccc2nc1N1CCN(C)CC1,-0.711%

row,Structure (SMILES),% Inhibition @ 10 uM
1,CC(C1CC1)N(C(=O)c1ccc(NC(=O)Nc2ccccc2Cl)cc1)c1ccccc1 (centres unmarked),-1.15%
2,CC(=O)C1=C(O)C(=O)N(CC#N)C1c1cccnc1 (centres unmarked),0.83%
3,CCCC1=C(C(=O)OCC)C(c2ccc(Cl)cc2)C(C#N)=C(N)O1 (centres unmarked),-0.197%
4,CCOc1cc(/C=C2\C(=O)N(CCC3=CCCCC3)C(C)=C2C(=O)OC)ccc1O,0.222%
5,Cc1cc(C)n(CC(O)CN2c3ccccc3Sc3ccccc32)n1 (centres unmarked),3.72%
6,CCN1CCN(C(c2cccs2)C(C)NC(=O)c2ccc3c(c2)OCO3)CC1 (centres unmarked),-2.88%
7,O=c1/c(=C/c2ccccc2F)sc2nc3ccccc3n12,5.98%
8,CC(C)NC(=O)c1ccc(-n2c(-c3ccccc3)nc3cccnc32)cc1,0.775%
9,Cc1nn(CCCC(=O)NC2CCCc3ccccc32)c(=O)c2nccn12 (centres unmarked),0.0882%
10,O=C(O)c1ccccc1C(=O)Nc1ccc(S(=O)(=O)N2CCCCC2)cc1,-1.04%
11,COc1cc(C2CC(=O)NC3=C2C(=O)CC(c2ccccc2Cl)C3)cc(Br)c1O (centres unmarked),8.96%
12,COc1ccccc1-c1nc2s/c(=C\c3ccccc3Cl)c(=O)n2n1,-8.79%
13,Clc1ccc(OCCCN2CCCCC2)cc1,-3.15%
14,CCOC(=O)c1c(C)n(C)c2ccc(OCC(O)CNCc3ccco3)cc12 (centres unmarked),-3.13%
15,CCc1[nH]nc2c1C(c1cccc(Cl)c1)C(C#N)=C(N)O2 (centres unmarked),-3.46%
16,CCOC(=O)C1=C(CS(=O)(=O)c2ccc(C)c(C)c2)NC(=O)NC1c1ccccc1OC (centres unmarked),5.92%
17,CCN(c1ccccc1)S(=O)(=O)c1ccc(NC(=O)Cc2ccccc2)cc1,2.01%
18,Cc1nonc1NC(=O)c1oc2ccc(F)cc2c1C,-3.24%
19,COc1cccc(C(=O)NC(C)c2ccc3c(c2)OCCCO3)c1 (centres unmarked),5.39%
20,O=C(Cn1ncc2ccsc2c1=O)NCCN1CCN(Cc2ccccc2)CC1,5.09%
21,COc1cc(OC)cc(C(=O)NCc2ccc(Cl)c(Cl)c2)c1,-5.13%
22,Cc1ccc(-c2nc(C#N)c(NCCCN(C)C)o2)cc1,0.315%
23,O=C(Cc1ccc(F)cc1)NCc1nc2ccccc2[nH]1,-2.79%
24,NC(=O)c1c(NC(=O)CCn2cnc3ccccc3c2=O)sc2c1CCCC2,-7.46%
25,CCOC(=O)C1=C(CS(=O)(=O)c2ccc(Cl)cc2)NC(=O)NC1c1ccc(OCC)cc1 (centres unmarked),5.92%
26,CC(=O)c1ccc(-c2ccc(/C=c3\sc4nc(-c5ccccc5)nn4c3=O)o2)cc1,3.54%

row,Structure (SMILES),% Inhibition @ 10 uM
1,CCCNC(=O)CCC(=O)n1ncc2ccc(Cl)cc21,3.84%
2,Cc1cc(NC(=O)c2cccnc2)n(Cc2cccc3ccccc23)n1,-1.24%
3,O=C(NCCc1ccccc1)c1cccs1,-2.15%
4,Cc1ccc(C)[n+](CC(=O)N2CCCCC2)c1,5.31%
5,CCc1ccc(C(=O)c2cnc3ccccc3c2O)cc1,6.64%
6,CC(NC(=O)Cn1ncn2c(cc3cc(F)ccc32)c1=O)c1ccc2c(c1)OCCO2 (centres unmarked),1.68%
7,COc1ccc(CCNC2CCCCC2C)cc1OC (centres unmarked),2.78%
8,CSc1nn(-c2ccccc2)c2nc(C)c(C(C)=O)c(N)c12,-3.65%
9,CCCC[C@@H](/C=C/S(=O)(=O)c1ccccc1)NC(=O)[C@H](Cc1cc(I)c(O)c(I)c1)NC(=O)OC(C)(C)C,-8.26%
10,O=C(CSc1nc2cccnc2[nH]1)Nc1ccc(OC(F)(F)Cl)cc1,-0.297%
11,CS(=O)(=O)n1nc(-c2ccco2)nc1NCc1ccc(Cl)cc1,-5.31%
12,CCCN1CN=C(Nc2nc(C)c3ccc(C)cc3n2)NC1,2.1%
13,O=C(COc1ccc(Br)cc1)NCCN1CCCC1,-0.0619%
14,O=C(Nc1sc2c(c1CN1CCCCCC1)CCCC2)c1ccccc1,-2.21%
15,COc1ccccc1C(=O)n1nc(C)cc1C,1.91%
16,CC1CN(Cc2ccccc2Cl)CC(C)O1 (centres unmarked),5.06%
17,COc1cc(CN2CCC(Cc3ccccc3)CC2)cc2c1OCO2,-8.01%
18,CCN1CCCC1CNC(=O)Cn1ncc2c3ccccc3n(Cc3ccc(F)cc3)c2c1=O (centres unmarked),-5.19%
19,Cc1cc(N2CCCCCC2)nc2ccccc12,0.51%
20,CC(CCCC(C)(C)O)NC1CCC(C(C)(C)C)CC1 (centres unmarked),-3.27%
21,COc1ccc(CCN2C(=O)CN(CCc3ccccc3)CC2=O)cc1OC,-1.74%
22,C=CCn1c(=N)c(C#N)cc2c(=O)n3cccc(C)c3nc21,-2.77%
23,CCN(CC)CCNC(=O)c1ccc(CS(=O)(=O)Cc2cccc(C)c2)o1,-2.72%
24,Cc1ccc(S(=O)(=O)N(Cc2ccccc2)C(C)(C)C)cc1,-3.65%
25,CCCN(CCO)C/C(Cl)=C/c1ccccc1,2.5%
26,Cc1cccc(NC(=O)CN(Cc2ccc(F)cc2)S(=O)(=O)c2ccccc2)c1C,0.583%

row,Structure (SMILES),% Inhibition @ 10 uM
1,COc1ccc(CC(=O)Nc2c(-c3ccc(F)cc3)nc3ccccn23)cc1,-3.48%
2,CCOC(=O)c1c(-c2ccccc2)csc1NC(=O)c1cc(C2CC2)on1,1.23%
3,Cc1nn(-c2ccccc2)c2c1N(CC(=O)NCCc1ccc(Cl)cc1)C(=O)CS2,-6.5%
4,CCCCN(CC)CCNC(=O)C1c2ccccc2C(=O)N(CCOC)C1c1cccs1 (centres unmarked),2.16%
5,CCN(CCCNC(=O)c1cn(CCOC)c(=O)c2c1c1ccccc1n2C)Cc1ccccc1,0.0221%
6,CC(C)C[C@H](NC(=O)c1ccc(-c2cccc(C(F)(F)F)c2)o1)C(=O)NCC#N,5.05%
7,CCN(CC)CCNC(=O)Nc1cn(CC(C)C)c(=O)c2ccccc12,-2.71%
8,CCOc1ccc(NC(=O)COc2ccc(C)c(C)c2)cc1,0.661%
9,CCCOc1ccc(C(=O)Nc2ccc(NC(=O)c3cccs3)cc2)cc1,4.94%
10,Cc1cc(C)c(S(=O)(=O)Nc2ccccc2C(F)(F)F)c(C)c1,4.03%
11,COc1ccc(CN(C)C2CCN(C)CC2)c(OC)c1,-6.47%
12,COC(=O)Nc1ccc2c(c1)N(C(=O)CCN1CCOCC1)c1ccccc1CC2,-1.32%
13,OC(c1ccccc1)c1nc2ccccc2n1Cc1ccc(F)cc1 (centres unmarked),-2.5%
14,Cc1oc(-c2ccc(Cl)cc2)nc1CN1CCC(C(=O)NC(C)c2ccccc2)CC1 (centres unmarked),-1.05%
15,CCOC(=O)c1c(NC(=O)c2cc(-c3ccc(O)cc3)on2)sc2c1CCCC2,0.723%
16,CC(=O)N1c2ccccc2C2(CC(=O)N(Cc3ccccc3)C2=O)C1/C=C/c1ccccc1 (centres unmarked),5.61%
17,OCC1CCCN1Cc1ccc(F)c(F)c1 (centres unmarked),-2.95%
18,Cc1ccc2c(CC(=O)O)coc2c1C,-1.11%
19,COc1cc2c(CC(=O)Nc3ccccc3)c(O)c(C)c(NCc3ccccc3)c2cc1OC,13.4%
20,CCc1ccc(-n2nnc(-c3nc(-c4ccccc4)no3)c2N)cc1,-6.26%
21,CCC(=O)OC1(c2ccccc2)CCN(C)C(C)C1C (centres unmarked),-1.91%
22,COc1ccc(Cl)cc1NC(=O)CN(C)S(=O)(=O)c1c(C)cc(C)cc1C,-4.12%
23,COc1cc(OC)c2c(C)c(C(=O)c3ccccc3)oc2c1,-0.25%
